This note sets out measurements from PubChem BioAssay AID360 (National Center for Advancing Translational Sciences (NCATS), 2006).

Molecules are shown by their SMILES. The campaign covered roughly 48,000 compounds. About 550 (1.1%) were called active. Not shown: some 4% with an inconclusive outcome. No stated cut-off is given here; in the data, active means potency below about 15 µM; inconclusive means mostly about 16 µM to 33 µM; inactive means weaker than that. The list shows a part of the results.
Potency means the concentration at half of the fitted maximal effect.

Chain of UniProt P04062 (P04062 whole entry, looked up): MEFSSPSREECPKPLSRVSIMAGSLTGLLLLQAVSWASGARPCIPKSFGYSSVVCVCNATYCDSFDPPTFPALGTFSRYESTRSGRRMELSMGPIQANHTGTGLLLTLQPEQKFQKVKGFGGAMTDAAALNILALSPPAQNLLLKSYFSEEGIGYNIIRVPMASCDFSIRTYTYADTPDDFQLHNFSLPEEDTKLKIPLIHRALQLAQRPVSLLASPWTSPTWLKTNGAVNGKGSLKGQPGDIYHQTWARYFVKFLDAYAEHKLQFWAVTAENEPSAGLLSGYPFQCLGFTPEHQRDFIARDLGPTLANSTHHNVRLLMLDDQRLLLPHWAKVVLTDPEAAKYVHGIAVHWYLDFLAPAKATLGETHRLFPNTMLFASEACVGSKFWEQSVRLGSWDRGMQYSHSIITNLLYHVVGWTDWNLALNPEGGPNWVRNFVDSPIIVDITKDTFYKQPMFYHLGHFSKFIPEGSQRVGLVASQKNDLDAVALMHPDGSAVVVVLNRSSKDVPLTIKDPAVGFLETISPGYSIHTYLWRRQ

The target of the assay is Lysosomal acid glucosylceramidase (Homo sapiens) (UniProt P04062). Kind of assay: Glucocerebrosidase.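 Further: the screen sought inhibitors.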 Conditions: purified enzyme, resorufin glucoside fluorescence (screen aimed at inhibitors), 20 min. Put shortly:
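Wild-type enzyme at 0.2 nM final in 50mM citric acid/KH2PO4, 10mM sodium taurocholate, 0.01% tween-20, pH 5.9, with resorufin beta-D-glucopyranoside at 30 uM final. Compounds titrated, 20 min at RT, red fluorescence read; AC50 from titration.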
In the case of `CC1CN(S(=O)(=O)c2ccc(-c3nc4ccccc4s3)cc2)CC(C)O1` (stereo unspecified), the Potency is inactive: > 76.9 µM.

`Cc1cc(-n2c(C)cc(C(=O)CSc3nnnn3-c3ccccc3)c2C)no1`: the Potency is inactive: > 76.9 µM. Then `COC(=O)c1ccc(C2C3=C(Nc4nnnn42)c2ccccc2OC3)cc1` (stereo unspecified), with active: 8.19 µM; and `Cc1c(C(=O)OCC(C)(C)CN(C)C)oc2ccccc12`, with inactive: > 76.9 µM; and `COCCn1c(C)cc(C(=O)CSc2nc3ccccc3o2)c1C`, with inactive: > 76.9 µM. To `Cc1ccc2nc(NC(=O)CCNS(=O)(=O)c3ccc(Br)s3)sc2c1` belongs inactive: > 76.9 µM; to `Cn1c(-c2ccc(F)cc2)cnc1SCC(=O)Nc1ccccc1N1CCOCC1`, inactive: > 76.9 µM. As to `CC(=O)N1C(C(=O)O)CSC1c1cccc(C)c1` (stereo unspecified), the Potency was inactive: > 76.9 µM.

With `Cc1nc2ccccc2c(=O)n1NCc1cc(Br)cs1`, the Potency was inactive: > 76.9 µM. To `COc1ccc(NC2=C(C(C)=O)C(c3ccc4c(c3)OCO4)C(C(C)=O)C(C)(O)C2)cc1` (stereo unspecified) belongs inactive: > 76.9 µM; to `COC(=O)c1ccccc1NC(=O)Nc1cccnc1`, inactive: > 76.9 µM. Then `CC1(Cc2ccc3c(c2)OCO3)NC(=O)NC1=O` (stereo unspecified), with inactive: > 76.9 µM; and `Cc1cccc(-n2ncc3c(NCc4ccccn4)ncnc32)c1`, with inactive: > 76.9 µM. As for `Cc1ccc(C(CC(=O)N2CCOCC2)c2ccco2)cc1` (stereo unspecified), the Potency was inactive: > 76.9 µM. To `CCOC(=O)C1CCCCN1Cc1ccccc1C(F)(F)F` (stereo unspecified) belongs inactive: > 76.9 µM; to `COc1ccc(CCNC(=O)C2CCN(Cc3nc(-c4cccc(Cl)c4)oc3C)CC2)cc1OC`, inactive: > 76.9 µM; to `Cc1ccc2cccc(Oc3cnccn3)c2n1`, inactive: > 76.9 µM.

For the molecule `CCOC(=O)c1cnc2cc3c(cn2c1=O)CCCC3`, the Potency is inactive: > 76.9 µM. To `C#CCOC(=O)c1ccccc1C(=O)N(CC)CC` belongs inactive: > 76.9 µM; to `COc1ccccc1N1CCN(C(=O)C(F)F)CC1`, inactive: > 76.9 µM; to `O=C(c1cccs1)N(Cc1ccco1)C1CCS(=O)(=O)C1` (stereo unspecified), inactive: > 76.9 µM. To `N#Cc1nc(-c2ccccc2)oc1N1CCCCC1` belongs inactive: > 76.9 µM.

For `Nc1c(S(=O)(=O)c2ccccc2)c2nc3ccccc3nc2n1/N=C/c1cccc(O)c1`, the Potency is inactive: > 76.9 µM.

Take `COc1ccc2c(c1)OCC1=C2CCC2(C)C(=O)CC=C12` (stereo unspecified): the Potency was inactive: > 76.9 µM.

For `Cc1ccc2cc(S(=O)(=O)NCCCC(=O)O)ccc2c1`, the Potency is inactive: > 76.9 µM. To `CN(C)CCCN1C(=O)C(=O)/C(=C(/O)c2ccc3c(c2)OCO3)C1c1cccnc1` (stereo unspecified) belongs inactive: > 76.9 µM.
